Measured values taken from PubChem BioAssay AID1963576 (National Center for Advancing Translational Sciences (NCATS), 2024).
About 60 (0.1%) of roughly 46,000 compounds were called active. Another 3% or so got no clear call; they are omitted. The call rests on the fitted dose curve; in most records, active means well fitted inhibition curve with a large enough effect; inconclusive means small, poorly fitted or top-dose-only effect; inactive means no such curve, though single readings can be large or run the other way. The list shows a part of the results.

Experiment: Primary qHTS assay for Inhibitors of ovarian cancer metastasis using an organotypic tumor microenvironment (TME) model. Further: nearly all actives have a fitted effect of over 65% in size.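 On activity change, negative = inhibition: plate controls were DMSO wells for no effect and tomatine positive control wells for full effect.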
Details: SKOV3ip1-GFP adhesion/invasion on 3D omental model, fluorescence; series mostly up to 45.8 µM; activity change, negative = inhibition: at the top concentration
In short: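 qHTS, 4-pt dose (0.36-46 umol/L); SKOV3ip1-GFP, 1,200 cells/well, no FBS; primary omental fibroblast/mesothelial co-culture 48 h pre-grown; 2 h RT + 16 h 37 C; PBS wash, 4% PFA; GFP count 488/509 nm.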

| SMILES | activity change, negative = inhibition | outcome |
| --- | --- | --- |
| N#Cc1ccccc1NC(=O)c1cc2c(=O)n3ccccc3nc2s1 | inactive: 3.79% | – |
| CC1CCN(S(=O)(=O)c2ccc3c(c2)N(CC(=O)NCCCN2CCCCC2C)C(=O)CS3)CC1 (stereo unspecified) | inactive: -2.7% | – |
| COc1ccc(CCNC(=O)C2=C(C)C(=O)OC23CCCCC3)c(OC)c1OC | inactive: -13.2% | – |
| CCN(CC)S(=O)(=O)c1ccc2c(c1)nc(CN(C)C(=O)c1cccc(Cl)c1)n2C | inactive: -6.56% | – |
| COc1cc(CN(C(=O)c2ccccc2[N+](=O)[O-])c2ccccn2)cc(OC)c1OC | inactive: 2.78% | – |
| Cc1ccc(C)c(NC(=O)CSc2nc(=O)n(CCN(C)C)c3c2CCC3)c1 | inactive: -8.66% | – |
| Cc1sc2c(c1C)c(=O)n(CCc1ccccc1)c(=O)n2Cc1ccccc1Cl | inactive: 0.955% | – |
| COc1cccc(N2CCN(C(=O)c3cccc(NC(=O)c4nsc5ccccc45)c3)CC2)c1 | inactive: 2.93% | – |
| Cc1ccc(S(=O)(=O)c2cn(Cc3ccccc3F)c3cc4c(cc3c2=O)OCO4)cc1 | inactive: 0.317% | – |
| CC1CCCN(Cc2c(O)ccc3c(=O)c(Oc4ccccc4Cl)c(C(F)(F)F)oc23)C1 (stereo unspecified) | – | inactive |
| CCc1ccc(NC(=O)CCS(=O)(=O)c2ccc3c(c2)CCN3C(C)=O)cc1 | – | inactive |
| Cc1cc(NC(=O)c2ccc3c(c2)N(Cc2cccc(Cl)c2)C(=O)c2ccccc2S3=O)ccc1Br (stereo unspecified) | inactive: 10.9% | – |
| CCc1ccccc1NC(=O)Nc1cc(C(=O)NCc2ccc(C(C)C)cc2)ccc1N1CCCC1 | inactive: -9.16% | – |
| COc1ccc(OC)c(CNC(=O)C2CCN(S(=O)(=O)c3cn(C)cn3)CC2)c1 | – | inactive |
| CCC1CN(S(=O)(=O)c2cc(-c3cc(C)no3)ccc2OC)c2cc(C)ccc2O1 (stereo unspecified) | inactive: -2.74% | – |
| CO[C@@H]1[C@@H](O)[C@H](O)[C@@H](n2c3c(Cl)cccc3c3c4c(c5c6cccc(Cl)c6[nH]c5c32)C(=O)NC4=O)O[C@@H]1CO | inactive: 2% | – |
| CCOc1ccc(CNC(=O)CCc2c(C)nn(-c3ccc(N4CCOCC4)nn3)c2C)cc1 | inactive: 110% | – |
| Cc1ccc(S(=O)(=O)N2CCC(c3nnc(-c4cccc(C)c4)o3)CC2)cc1 | inactive: -6.7% | – |
| CCc1nc2nc(C)cc(Nc3cc(Cl)ccc3OC)n2n1 | inactive: 9.49% | – |
| CCc1ccc(CNC(=O)c2ccc(NC(=O)N3CCSc4ncccc43)cc2)cc1 | inactive: -9.71% | – |
| COc1ccc(C(=O)NCc2nnc(SCC(=O)Nc3ccc(C)cc3)n2-c2ccccc2)cc1 | inactive: 2.4% | – |
| Cc1ccc(SCC(=O)Nc2ccc3oc(-c4ccc(F)cc4)nc3c2)cc1 | inactive: -2.04% | – |
| COc1cccc(CNC(=O)c2ccc3c(Cl)c4c(nc3c2)CCCC4)c1 | inactive: -6.77% | – |
| Cc1ccc(C(C)C)c(OCc2ccc(C(=O)Nc3ccc(S(N)(=O)=O)cc3C)o2)c1 | inactive: -15.3% | – |

| SMILES | activity change, negative = inhibition | outcome |
| --- | --- | --- |
| Cc1cccc(N(C)C(=O)CS(=O)(=O)c2cccc3nsnc23)c1 | inactive: -7.29% | – |
| CCOc1ccc(Nc2cc(C)c(C#N)c3nc4ccccc4n23)cc1 | inactive: 2.75% | – |
| Cc1ccc(S(=O)(=O)c2nc(-c3ccco3)oc2SCC(=O)c2ccc(Cl)cc2)cc1 | inactive: 9.19% | – |
| CCOc1ccc(CCNC(=O)c2ccc(C)c(-n3cnc4cccnc43)c2)cc1 | inactive: 5.08% | – |
| CC(C)NC(=O)Cn1c(=O)nc(-c2ccccc2)c2ccccc21 | inactive: -7.83% | – |
| O=C(CN1C(=O)COc2ccc(S(=O)(=O)N3CCCC3)cc21)NCCc1ccc(Cl)cc1 | – | inactive |
| Oc1ccccc1-c1nc(/C=C/c2ccccc2)nn1-c1ccccc1 | – | inactive |
| CCOC(=O)c1c(NC(=O)c2ccccc2C)sc2c1CCCC2 | – | inactive |
| Cc1nc(-n2nc(C)c(CCC(C)C)c2C)sc1C(=O)Nc1cccc(Cl)c1C | inactive: -15% | – |
| O=C(OCc1ccco1)c1ccc2c(c1)N(Cc1ccc([N+](=O)[O-])cc1)C(=O)c1ccccc1S2 | – | inactive |
| Cn1nnnc1SCCCNCc1ccc(-c2cccc(Cl)c2)o1 | inactive: 0.89% | – |
| Brc1ccc(-c2nc(N3CCN(c4ccccc4)CC3)c3ccccc3n2)cc1 | – | inactive |
| COc1ccc2oc(=O)cc(CN3CCN(C(=O)c4ccccc4Br)CC3)c2c1 | – | inactive |
| COc1cc(OC)c(C(=O)CCCN2CCCC2)c(OC)c1 | inactive: 4.66% | – |
| CC1CCN(c2nn3c(=O)c(C(=O)NCCc4ccc(Cl)cc4)cnc3s2)CC1 | inactive: 3.67% | – |
| CCOc1ccc2nc(N3CCN(C(=O)C(C)C)CC3)sc2c1 | – | inactive |
| O=c1[nH]c2ccc(NS(=O)(=O)c3ccc(F)cc3)cc2s1 | inactive: -3.08% | – |
| COC(=O)c1cc(C)nc2c1c(=O)nc(SCc1cccc(C(F)(F)F)c1)n2C1CC1 | – | inactive |
| COc1ccc(Cl)cc1NC(=O)COC(=O)CC(C)(C)CC1=NS(=O)(=O)c2ccccc2N1 | inactive: -1.06% | – |
| Cc1c(Cl)cccc1NC(=O)CCn1cnnn1 | – | inactive |
| CCN(CC)CCCNC(=O)C(C)n1nc(C)n2c(cc3occc32)c1=O (stereo unspecified) | inactive: 121% | – |
| COCCCN1C(=O)c2[nH]nc(-c3ccccc3O)c2C1c1ccc(OC)cc1 (stereo unspecified) | inactive: -37.4% | – |
| CC(C)c1ccc(NC(=O)c2cc(S(=O)(=O)NC3CCCCC3)ccc2F)cc1 | inactive: -16.8% | – |
| Cc1cccc(Cn2c(SCc3ccc(C(=O)NCc4cccs4)cc3)nc3cccnc32)c1 | inactive: -11.6% | – |

| SMILES | activity change, negative = inhibition | outcome |
| --- | --- | --- |
| O=c1cc2nc(-c3ccccc3F)nc(SCc3ccc(Br)cc3)n2[nH]1 | inactive: 0.637% | – |
| CCOC(=O)c1c(C)[nH]c(C)c1S(=O)(=O)N1CCCC(C(=O)Nc2ccc(OC)c(OC)c2)C1 (stereo unspecified) | inactive: 0.925% | – |
| COc1ccc(NC(=O)CSc2nnc(-c3nonc3NC(C)=O)n2C)cc1Cl | inactive: 2.13% | – |
| Cc1ccc(-n2ccnc(NCCc3ccccc3)c2=O)cc1C | – | inactive |
| Cc1ccc2[nH]c(CSc3nnc(C)s3)cc(=O)c2c1 | inactive: 1.94% | – |
| O=C(C1CCC(CNS(=O)(=O)c2cccs2)CC1)N1CCN(c2ccc(Cl)cc2)CC1 (stereo unspecified) | inactive: -18.3% | – |
| COc1ccc(CCNC(=O)Cn2c(=O)nc(-c3ccccc3F)c3cc(Cl)ccc32)cc1OC | inactive: 11% | – |
| COC(=O)c1ccccc1NC(=O)CN(c1ccc(Cl)cc1)S(=O)(=O)c1ccc(OC)cc1 | – | inactive |
| Cc1cccc(N2CCN(C(=O)C3CCCN(C(=O)c4cc5sccc5n4C)C3)CC2)c1C (stereo unspecified) | inactive: 7.51% | – |
| O=C(Nc1cc(-c2ccc(F)c(F)c2)no1)c1ccccc1F | inactive: -0.245% | – |
| COc1ccc(N2CCN(c3ncnc4onc(C)c34)CC2)cc1 | – | inactive |
| N#CC(c1ccc(Cl)cc1)c1c(Cl)cc(-n2ncc(=O)[nH]c2=O)cc1Cl (stereo unspecified) | inactive: -8.04% | – |
| O=c1ccc2ccc(O)c(O)c2o1 | inactive: 18.5% | – |
| CCOc1ccccc1NC(=O)C1CCN(S(=O)(=O)c2cccc3nonc23)CC1 | – | inactive |
| COCCNC(=O)CCn1c(=O)[nH]c2cc(OC)c(OC)cc2c1=O | – | inactive |
| COc1ccc(NC(=O)C(=O)c2cc(C)n(-c3ccc(C)cc3)c2C)cc1Cl | inactive: -4.12% | – |
| CCOc1ccc(CCNC(=O)Cn2ccc3cc(S(=O)(=O)N4CCCCCC4)ccc32)cc1 | inactive: -10.4% | – |
| CCC1CN(C(=O)C2CCN(S(=O)(=O)c3c(C)noc3/C=C/c3ccc(C)cc3)CC2)c2cc(C)ccc2O1 (stereo unspecified) | inactive: -6.32% | – |
| CC1=C(C(=O)Nc2ccc(F)cc2)C(c2ccc(N(C)C)cc2)NC(=O)N1 (stereo unspecified) | inactive: 3.57% | – |
| CCOc1ccc(NC(=O)c2cc(S(=O)(=O)N3CCC(C)CC3)cn2C)cc1 | – | inactive |
| COc1ccc(CNC(=O)Cc2ccc(NC(=O)N3CCCCc4ccccc43)cc2)cc1 | inactive: 0.205% | – |
| CCCOC(=O)c1cccc(Nc2nc(C(=O)OCC)nc3ccccc23)c1 | inactive: -0.319% | – |
| O=C(Nc1ccc(C(F)(F)F)cc1)C1(c2cccs2)CCOCC1 | – | inactive |
| CCC1CN(C(=O)N2CCC(C(=O)NCc3ccccc3F)CC2)c2ccccc2O1 (stereo unspecified) | – | inactive |

| SMILES | activity change, negative = inhibition | outcome |
| --- | --- | --- |
| CC1CCCN(c2ncnc3c2nnn3C)C1 (stereo unspecified) | inactive: -8.54% | – |
| Cc1cc(C)cc(NC(=O)c2cc(S(=O)(=O)N3CCCCC3)c[nH]2)c1 | inactive: -14.1% | – |
| Cc1ccc(NC(=O)c2c(C)oc3ncnc(N4CCCCC4)c23)c(C)c1 | – | inactive |
| CC(Oc1ccccc1F)C(=O)NCC1(N2CCOCC2)CCCCC1 (stereo unspecified) | inactive: -11.5% | – |
| Cc1ccccc1NC(=O)C1CCN(S(=O)(=O)c2cccc3nonc23)CC1 | – | inactive |
| COc1cccc(CNC(=O)Nc2ccc3c(c2)N(C)C(=O)c2ccccc2S3)c1 | inactive: 16.2% | – |
| COc1ccc(OC)c(-c2cc(C(=O)NCc3ccc(Cl)cc3)no2)c1 | inactive: 2.21% | – |
| Cc1ccc(-c2nn3c(C)nnc3c3ccccc23)cc1S(=O)(=O)NC(C)(C)CO | inactive: -16.8% | – |
| CCc1ccc(NC(=O)c2sc3nc(C)cc(C)c3c2NC(=O)c2ccccc2)cc1 | inactive: 52.5% | – |
| CC(C)(C)C(=O)OCOP(=O)(COCCn1cnc2c(N)ncnc21)OCOC(=O)C(C)(C)C | inactive: -18.6% | – |
| Cc1ccc(C)c(NC(=O)Cn2cc(S(=O)(=O)c3ccc(F)cc3)c(=O)c3cc(F)ccc32)c1 | inactive: 25.2% | – |
| CN(C)S(=O)(=O)c1ccc2c(c1)N(CC(=O)N1CCC(C(N)=O)CC1)CCS2 | inactive: 136% | – |
| COc1ccc(/C=C/C(=O)Nc2cccc(F)c2)cc1 | – | inactive |
| CCOc1ccc(N(C)S(=O)(=O)c2cc(-c3cnc(C)o3)ccc2OC)cc1 | – | inactive |
| O=C(Nc1nnc2n1CCS2)c1cc(C(F)(F)F)cc(C(F)(F)F)c1 | inactive: 5.62% | – |
| COc1ccc(C(=O)N2CCN(CCc3ccccn3)CC2)cc1 | inactive: 0.0498% | – |
| Cc1ccc(NC(=O)C2CCCN(c3nc4ccccc4s3)C2)c(C)c1 (stereo unspecified) | inactive: 1.12% | – |
| COc1ccc(-c2cc(C(F)(F)F)n3nc(C(=O)Nc4ccc(Cl)cc4C(F)(F)F)cc3n2)cc1OC | inactive: -4.07% | – |
| Cc1cccc(C)c1NC(=O)Cn1c(=O)n(CCC(=O)NCc2ccc3c(c2)OCO3)c(=O)c2sccc21 | inactive: 5.94% | – |
| Cn1c(=O)c2c(-c3ccccc3)n3c(c2n(C)c1=O)C(c1cccc([N+](=O)[O-])c1)Nc1ccccc1-3 (stereo unspecified) | inactive: -3.76% | – |
| Cc1ccc(NC(=O)c2cnc(SCC(=O)N3CCCc4ccccc43)n(C)c2=O)cc1C | inactive: -11.6% | – |
| CCN(C(=O)Cn1cnc2c1c(=O)n(C)c(=O)n2C)c1ccccc1C | – | inactive |
| Cc1oc(-c2ccccc2)nc1Cn1c(=O)cc(-c2ccccc2)c2c(C)nn(C)c21 | inactive: 3.55% | – |
| COc1ccc(-c2cc(C(=O)Nc3c(C(=O)c4ccc(C)c(F)c4)oc4ccccc34)no2)cc1 | inactive: 17.8% | – |
